The source gives no read counts; variants with many changes may rest on few reads.
B1: LINE1-full (parent)
chain: UACGUAGGUGGUUUUCCCCUGAUAGUGCUAAGGGGGCCUGGAAGUUUGGACUGGGCAGAGCUCAACACAGCGUGGCAAAGUGGCUGUGGCUAGACUGCCUCUCUGGAUUCCUCGUCACUCAGCAGGGCAUCUCUGAGAGAAAUGCC

Variants of: B1
Test: self-cleavage, relative activity (ratio to wild type); higher = more cleavage; in vitro, sequencing; the parent is a self-cleaving ribozyme

Variant | self-cleavage
U9A G86U A124U U134C | 0.13
G10A U73A U104A | 1.26
U9C U14C C66U | 0.15
U9A A78G U85C A124G | 0.56
U9C A22G U26A C98U | 0.31
U9C U13G A65G U100A U132A A142G | 0
U9C C19U U29C U134A | 1.49
U9C U13C U29A A121U | 0.98
U9A U14A A141G | 0.28
U9C A67U A92G A94U U96A U115C | 0.66
U9A U14C U100A U108C | 0.95
U9G U96A A141G | 0.08
U9C U46C A69U A94G A129G A136U | 0
U9C G48U A129C | 0.76
U9A U20C U130A A138G | 2.38
G10A U102C U112C | 1.94
U9C U13C A31G U102C | 1.78
U9A U47C U85A U108C | 0.51
U9C U52C G53A A124G | 0.31
U9C U62C U87C | 0
U9C U13C U23C A59G | 0
U9C U102C U112C | 0.84
U9A U85A A129G | 0.03
U9C A42G C84G | 0.51

Variant | self-cleavage
U9A G34C A117G U119G | 1.15
U9A U20C U47A U112A A124G A141G | 1.17
U9A U26A U87C | 0.12
U9C U26C U85C U102C U134A A140U | 0
U9C U15C U46C | 0.78
U9A G41U A42U | 0.85
U9C G54U A69U A94U | 0.04
U9C U14A C90U | 0.09
U9C A50G U115C | 1.46
U9C U20C C99G | 0
U9A U23G U109C U143C | 0
U9C U45C A50G U100C | 1.53
U9A U20C A42G U134C | 1.67
U9A G35U A138G | 1.23
U9C U100C G135A | 1.56
U9A U14C C113U | 0.79
U9A U14C A79U U112C G114A | 1.77
U9C A42G U102A U108C | 0.97
U9C U20C U100A U130C | 1.62
U9C U26A U46C U47A C71G U73A A77G | 0.16
U9C U62C A67G | 0
U9C A78G U104A | 1.33
U9G A67G U100C | 1.02
U9C A77U U109C U112A | 0.46

Variant | self-cleavage
U9C U45C U109C U132C U134A | 0.66
U9G A77U U109C A142G | 0
U9A G60A A64U A107U A124G U134C A142G | 0
G10A A43G U62C | 0
U9C U100C C123U A138G | 1.41
U9C U26C A124G | 0.56
U9C G72A U143A | 0.98
U9A C17U A64U U134C | 0.66
U9C U12G U29C | 0.88
U9A U134C A136U | 1.25
U9C C111U A117G | 0.95
G10A U12C C61U | 0.08
U9C A30U A43G U52A | 1.17
G10A U39A C133U | 1.43
U9G U91C G105A U130A | 0.24
U9C U62C U85C | 0
G10A U45C A69U U85G U132C | 0.92
U9C A22C G49U | 1.48
U9A U100C A107G | 1.53
U9C G27A A65G U85C | 0.08
U9C A59G U96C | 0
G10A U119C U134A | 1.53
U9A U39A A79G U119C | 1.25
U9A U26C A94C A124G A141G | 0

Variant | self-cleavage
U9A A124C A140G | 0.32
U9C A24U C111U | 0.8
U9C U12C U13A A42G A64G A142G | 0.92
U9C U73C G144A | 0.89
U9A C19U C28A U29C U47A U115G U132G | 0.56
U9C A43G U115C | 0.92
U9A U47A A79G | 0.43
G10A A24G A50U A65G A140G | 0.4
U9A G32A A67U U102C | 0.18
U9A U12C U134C | 0.63
U9C U45A U62C U119A | 0.08
U9A G54A A142G | 0.06
U9A A79U U112A A117G G126A | 1.78
U9A U20G U100C | 1.2
U9C A57G A107G | 1.31
U9C U23A U62C | 0
U9G G40A U134G | 1.27
U9C U13A A78U | 1.23
U9C U12A G27A A57G A138G U143C | 1.1
U9C A42G U73C U96A | 0.77
U9C U12G U14C U96C C99U U134C | 0.21
U9A U81A U102C U104C | 0
U9C U15C A77G U87A U134G | 0.16
U9C U52A U62G U112C | 0

Variant | self-cleavage
U9G G40A U73G | 0.82
U9G A141G U143C | 1.02
U9A U39C U112C | 1.53
U9C U29C U39C A42G | 1.84
U9A U15C A64G G72A U81C G114A | 0.27
G10A U13C U134A | 0.14
U9A A142G U143C | 1.11
U9C U12A U47C G72A U87G A141G | 0.61
U9C U115A A129U A140G | 1.68
U9C U12C A78G A141G | 0.97
U9C U12C A59G U87A A124U | 0.44
U9C G36A U47A C84U U100C U104C G105C | 0.19
U9C A64G U102A A107G C128U | 0.58
U9C A69G G114A | 0.17
U9C G40A U87C U100C | 0.74
U9A G82A U104A | 0.94
U9G C118A A124U | 0.57
U9G A59G U102G C123U | 0.38
U9A U39A A42G | 0.72
G10A A31G U100C | 1.23
G10A U62C U73C A78U | 0.09
U9C U45A U62C U87A | 0.17
U9C U12C U23C A43G | 0
U9C U96C G125U | 0.03

Variant | self-cleavage
G10A A50G U132A | 1.2
U9C U39C A142G | 1.62
U9A U102C A129U | 1.31
U9C A79G A121U | 1.58
U9C U29A A59G A140G | 0.4
U9A C19U U39A U100G A141G | 0.3
U9C A22G U132C | 0.97
U9C U45C A57U | 0.32
U9C U81C C90A | 0
U9A U87C A140G A142G | 0.29
U9C G11A U45A A136U | 1.23
G10A U45C U73A | 1.7
G10A A31U G88A | 0.12
U9A U62G A107G | 0
U9A U45A U73C | 0.6
U9C U45C G49U U108C | 1.49
U9C C61A A67U | 0.1
G10A A121G U132C | 2.26
U9C A64U A77G U100C | 1.59
U9C U14G A141G | 1.2
U9C A31G U45A A107G A136G | 0
U9C U85A U119A U132A | 0.07
U9C U47A U81A U112C | 2
U9G U87C U108C | 1.67

Variant | self-cleavage
U9C U26C A30U A57U | 0.28
U9C U12C A30G | 0.61
U9C A43U G74A A77U U85C U104C | 0.18
U9G U39A A57G | 1.47
G10A A107G U134C A136G | 1.67
U9C A79G C95U | 0.34
U9C U15A U100C | 1
U9A U13C U46C | 1.06
U9A U52G U62C | 0
U9C U29A G82U U85G U132C | 0
U9C A59G U62C C63A A140G | 0.38
U9A C19U U39C U132C | 1.06
U9C G25A A43G A57U U100C | 0.43
U9C U12C C131U | 0.42
U9C U47C U143G | 0.66
U9A U62C U73A A92G C101U A117U | 0.03
U9A A94U A129U | 0.26
U9A A77U U87A A138G | 0.1
U9A U47A U102C | 1.01
G10U U15G A67G A138U A142G | 0.34
U9C A78U U109C A138U | 1.9
U9A U47C A67U A117C C118U A124G | 0.15
U9A U20C G41U | 0.66

From the RNAGym collection of RNA variant scans (doi:10.7554/elife.90254)
